Data from PubChem BioAssay AID624171 (National Center for Advancing Translational Sciences (NCATS), 2012).
Screen size: about 410,000 compounds; about 1,200 (0.29%) were called active. Inconclusive results, whose numbers are uncertain, are shown with a selection of clear calls. Calls follow the shape of the dose curve; as a rule, active = well fitted activation curve with a large enough effect; inconclusive = small, poorly fitted or top-dose-only effect; inactive = flat fitted curve, though single readings scatter. A potency beside an inconclusive call is a rough fit, not a confirmed value.

experiment: qHTS of Nrf2 Activators; conditions: AREc32 ARE-luciferase reporter (MCF7-derived line), luminescence, 24 h; activation: at 46.1 µM (top of the series); also: nearly all actives have a fitted effect of over 65% in size; as to activation: % of control where 0% means no effect
In short: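 Quantitative high-throughput format: AREc32 reporter cells, 1000 per well, received compound by pin transfer and were incubated 24 hr at 37 deg C, 5% CO2, before Steady-Glo luminescence detection.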
Potency is read from the fitted curve at half-maximal effect; tags tell the direction and shape of the fitted curve.

Potency, active:
O=[N+]([O-])c1ccccc1N/N=C/c1c[nH]c2ccccc12 3.55 µM
COc1ccc(OC)c(-c2cc(C(=O)NCc3ccco3)no2)c1 11.2 µM
N#C/C(=C\c1cccc([N+](=O)[O-])c1)c1ccccn1 3.55 µM
CC(=O)c1sc(NC(=O)CCS(=O)(=O)c2ccc(C)cc2)nc1C 22.4 µM
CC(/C=N/n1cnnc1)=C\c1ccco1 11.2 µM
CC(/C=C/c1ccco1)=N\NC(=O)CNc1ccc2ccccc2c1 10 µM

Potency, inconclusive:
Cc1ccc(-c2cc(-c3ccccc3Cl)[nH]n2)c(O)c1 5.01 µM [activator, partial curve]
CC(=O)c1coc2c1cc(O)c1ccccc12 14.1 µM [activator, single point]
CC(/C=N/n1c(COc2ccccc2)n[nH]c1=S)=C\c1ccco1 11.2 µM [activator, partial curve]
NC(=O)c1oc2ccccc2c1NC(=O)c1ccccc1 4.47 µM [activator, full curve]
O=C(NNC(=O)c1cc([N+](=O)[O-])ccc1Cl)c1cccnc1 11.2 µM [activator, single point]
Cn1nnnc1Sc1ncnc2scc(-c3cccs3)c12 2.24 µM [activator, partial curve, poor fit]
O=C(COc1ccccc1[N+](=O)[O-])c1ccccc1 25.1 µM [activator, single point]
COc1ccccc1/C=N\Nc1ccccc1[N+](=O)[O-] 0.891 µM [activator, full curve, poor fit]
O=C1C(Cl)=C(Nc2ccccc2O)C(=O)N1c1ccccc1 15.8 µM [activator, single point]
O=[N+]([O-])c1cc2ncccc2c2ncccc12 6.31 µM [activator, partial curve, poor fit]
COc1cccc(-c2nc3cc(C)ccc3o2)c1 2.51 µM [activator, partial curve, poor fit]
O=C(NC(=S)Nc1cc([N+](=O)[O-])ccc1Cl)c1ccccc1 0.794 µM [activator, full curve, poor fit]
COc1cccc(C(=O)Oc2ccccc2/C=C\C(=O)c2cc3ccccc3o2)c1 3.16 µM [activator, full curve, poor fit]
Cc1nc(-c2ccccn2)sc1C(=O)Nc1ccc(F)cc1 0.891 µM [activator, full curve, poor fit]
Cc1ccc(C)c(OCCC(=O)OCC(=O)N2CCN(S(=O)(=O)c3ccc(Cl)cc3)CC2)c1 25.1 µM [activator, partial curve, poor fit]
Cn1c(NCc2ccccc2F)nc2cc(-c3ccsc3)sc2c1=O 1 µM [activator, partial curve, poor fit]
CCCCn1c(O)c(N=Nc2ccccc2O)c2ccccc21 5.01 µM [activator, full curve]
COc1ccc(NC(=O)c2ccc3c(c2)n(C)c(=O)n3C)cc1 17.8 µM [activator, single point]
CC1=CC2=C(OC1N(C)C)c1cccc3cccc(c13)C2=O (stereo not drawn) 6.31 µM [activator, partial curve, poor fit]
Cc1nn(Cc2ccccc2)c2c1C(c1cccc(Cl)c1)C(C#N)=C(N)O2 (stereo not drawn) 31.6 µM [activator, single point]
CC(=O)Nc1ccc(/C=C/c2ccc3cccc([N+](=O)[O-])c3n2)cc1 3.16 µM [activator, partial curve, poor fit]
Oc1oc(-c2ccccc2)nc1C=Nc1cccc2ccccc12 7.08 µM [activator, partial curve, poor fit]
CCSc1nnc(NC(=O)C(C(F)(F)F)C(F)(F)F)s1 20 µM [activator, single point]
COC(=O)/C(=C/c1ccco1)NC(=O)c1ccccc1 35.5 µM [activator, partial curve, poor fit]
Cc1[nH]c2ccccc2c1N=Nc1ccccc1F 2.24 µM [activator, full curve, poor fit]
N/C(=N\OC(=O)c1ccccc1Cl)c1cccnc1 2.51 µM [activator, partial curve, poor fit]
COc1ccc(-n2nc(C#N)c(Cl)cc2=O)cc1 3.98 µM [activator, single point]
C/C(=N/N=C(/C)c1cccs1)c1cccs1 3.55 µM [activator, single point]
N#C/C(=C\c1ccc[nH]1)C(=O)Nc1ccccc1Cl 5.62 µM [activator, partial curve]
CCN(CC)c1ccc(/C=N/Nc2nc3ccccc3[nH]2)cc1 3.55 µM [activator, single point]
O=C(Cn1ncc(Cl)c(Cl)c1=O)c1ccc2c(c1)OCCO2 3.55 µM [activator, partial curve, poor fit]
COc1cccc(NC(=O)c2ncc(Cl)c(Cl)c2Cl)c1 2.24 µM [activator, full curve, poor fit]
COC(=O)c1c(NC(=O)c2ccco2)sc2c1CCC2 11.2 µM [activator, partial curve, poor fit]
CNc1ccc(Br)cc(C(=O)/C=C/c2ccc(OC)cc2OC)c1=O 22.4 µM [activator, single point]
CN(C)c1ncnc2sc(-c3ccccc3)cc12 2.51 µM [activator, full curve, poor fit]
COc1ccc(C2=NN(C(=O)c3ccccc3C(=O)O)C(c3ccccc3O)C2)cc1 (stereo not drawn) 22.4 µM [activator, single point]
CC(=O)c1cccc(N2Cc3ccccc3C2=NC(=O)CCl)c1 25.1 µM [activator, single point]
COc1ccccc1NC(=O)c1oc2ccccc2c1C 20 µM [activator, partial curve, poor fit]
CNc1ccc(SC#N)cc1 22.4 µM [activator, partial curve, poor fit]
Cc1occc1C(=O)N=Nc1c(O)n(C)c2ccccc12 3.55 µM [activator, partial curve, poor fit]
Cc1nn2c(-c3ccc(S(=O)(=O)N4CCN(CCO)CC4)o3)nnc2c2ccccc12 11.2 µM [activator, partial curve, poor fit]
O=C(Nc1cccc(NC(=O)c2ccc([N+](=O)[O-])o2)c1)c1ccco1 3.55 µM [activator, partial curve, poor fit]

Potency, inactive:
O=C(Nc1nnc(S(=O)(=O)N2CCCCC2)s1)c1ccc(F)cc1
CCCOC(=O)C[N+](C)(C)CCOC1CC2CCC1(C)C2(C)C (stereo not drawn)
C#CCOCCOCCOCCNc1nc(N2CCN(C(=O)[C@H]([C@@H](C)CC)n3cc(CCCN=C(N)N)nn3)CC2)nc(N2CCN(C(=O)[C@H]([C@@H](C)CC)n3cc(CCC(=O)O)nn3)CC2)n1
COCC1CCN(C(=O)c2cc(COc3ccc(-n4cncn4)cc3)on2)CC1
Cc1ccc(C(=S)NCS(=O)(=O)c2ccc(C)cc2)cc1
Cc1oc(-c2ccccc2)nc1CNC(=O)NC1CCCCC1
O=C(CN1CCC(n2nnc3cc(F)ccc32)CC1)NCCc1nc2ccccc2[nH]1
Cn1c(C(=O)NCC2CCCO2)cc2c(=O)[nH]c3ccccc3c21 (stereo not drawn)
COc1ccc(OCc2cc(C(=O)NC(C)Cc3cnccn3)no2)c(Cl)c1 (stereo not drawn)
CCOc1ccc(-n2c(-c3ccccc3)c[n+]3c2CCC3)cc1
CCCCC[C@H]1CN(CCCC)C(=O)[C@@H]1CC(=O)NCc1ccc(OC)cc1
CC(C)CC(N)c1cn([C@@H](CCC(=O)O)C(=O)N2CCNCC2)nn1 (stereo partly drawn)
CCc1nn(CC(=O)N(CC)Cc2ccccc2)c(=O)c2cc3occc3n12
Cc1nn2c(NCC(C)C)c3c(nc2c1-c1ccccc1)CCC3
Cc1ccccc1CNC(=O)C1=Cc2ccccc2OC1
CN(C)CCSc1nc(O)c(-c2ccccc2)c(=O)n1-c1ccccc1
CCC(C)Sc1cc(-c2nc3ccccn3c2NC2CCCCC2)ccc1OC (stereo not drawn)
CCOc1ccc(-c2cc(CCCC(=O)NCCc3ccc(Cl)cc3)no2)cc1
CCOC(=O)CSc1nc2ccsc2c(=O)n1C1CCN(C(=O)OCC)CC1
CN1CCN(C(c2ccc(F)cc2)c2ccc3cccnc3c2O)CC1 (stereo not drawn)
CCCCOc1ccc(C(=O)NC)cc1
Nn1c(SCC(=O)NCc2ccccc2)nnc1C1CC1
CCc1ccc(NS(=O)(=O)c2ccc3oc(=O)c4ncn(CC)c4c3c2)cc1
COc1ccc(N2CCN(C(c3ccccc3)c3nnnn3C(C)(C)C)CC2)cc1 (stereo not drawn)

activation, inactive:
O=[N+]([O-])c1ccc(CN2CCN(c3ccc(Cl)cc3)CC2)o1 -0.0284% [at 9.22 µM]
